# From PubChem BioAssay AID588342 (National Center for Advancing Translational Sciences (NCATS), 2011)
# Among all 360,000 compounds or so, about 25,000 (6.9%) were called active. The shares of active, inactive and inconclusive entries below differ from those in the screen. Calls come from the whole dose curve; as a rule, active = well fitted inhibition curve with a large enough effect; inconclusive = small, poorly fitted or top-dose-only effect; inactive = flat fitted curve, though single readings scatter. Where the call is inconclusive, the potency comes from a doubtful curve fit.
# Molecular target: Luciferin 4-monooxygenase (Photinus pyralis) (UniProt P08659)
# Chain of UniProt P08659 (P08659 whole entry, looked up): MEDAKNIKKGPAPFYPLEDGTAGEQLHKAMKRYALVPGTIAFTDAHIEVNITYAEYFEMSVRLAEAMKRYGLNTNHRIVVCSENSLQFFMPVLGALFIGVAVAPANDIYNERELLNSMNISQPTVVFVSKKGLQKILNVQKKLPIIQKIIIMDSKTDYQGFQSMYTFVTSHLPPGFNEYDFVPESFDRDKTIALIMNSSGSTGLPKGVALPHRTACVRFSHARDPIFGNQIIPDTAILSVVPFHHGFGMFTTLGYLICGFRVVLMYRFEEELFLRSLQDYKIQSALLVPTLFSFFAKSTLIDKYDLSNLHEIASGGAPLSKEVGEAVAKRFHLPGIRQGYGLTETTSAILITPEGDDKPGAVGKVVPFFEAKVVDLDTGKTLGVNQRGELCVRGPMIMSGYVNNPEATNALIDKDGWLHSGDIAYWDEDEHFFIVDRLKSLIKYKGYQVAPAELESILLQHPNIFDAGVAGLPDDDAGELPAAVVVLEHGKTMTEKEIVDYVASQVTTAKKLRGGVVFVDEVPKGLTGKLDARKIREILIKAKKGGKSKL
# Experiment: qHTS profiling assay for firefly luciferase inhibitor/activator using purifed enzyme and Km concentrations of substrates (counterscreen for miR-21 project); note: nearly all actives have a fitted effect of over 55% in size
# Conditions: purified FLuc, luminescence inhibition; series mostly up to 57.5 µM
# Procedure, shortened: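 Biochemical qHTS of compounds, final roughly 60 µM downward over six points, against 10 nM purified firefly luciferase using Km concentrations of substrates (10 uM D-luciferin, 10 uM ATP) in Tris acetate pH 7.5 buffer; luminescence output.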
# Potency is the fitted concentration of half-maximal effect; tags give direction and shape of the fitted curve.
row,SMILES,Potency
1,CCCCCCc1cc2cc(-c3nnc(-c4ccc(C)cc4)o3)c(=O)oc2cc1O,"inconclusive: 3.38 µM [inhibitor, partial curve, poor fit]"
2,Cc1nnc(-c2ccc(N3CCCCCC3)c([N+](=O)[O-])c2)o1,"inconclusive: 33.8 µM [inhibitor, single point]"
3,Cc1cc(/C=C(\C#N)C(=O)NCc2ccco2)c(C)n1C1CCCC1,active: 6.01 µM
4,Cc1nnsc1C(=O)NNc1ccc(C(C)C)cc1,"inconclusive: 37.9 µM [inhibitor, single point]"
5,COc1cc(NC(=O)c2cnc3c(-c4ccc(F)cc4)c(C)nn3c2C)cc(OC)c1,inactive
6,Cc1ccc(Sc2c(C(=O)NCc3ccccc3C)[nH]c3ccccc23)cc1,"inconclusive: 37.9 µM [inhibitor, partial curve, poor fit]"
7,Cc1ccc(NC2=Nc3ccccc3CS2)cc1,active: 0.478 µM
8,CN1N=C2c3ccccc3CCC2C1c1ccc(C(F)(F)F)cc1 (stereo not given),"inconclusive: 19 µM [inhibitor, partial curve]"
9,Cc1ccc(-c2nc3ccc(Cl)cn3c2Nc2ccc3c(c2)OCCO3)s1,"inconclusive: 13.5 µM [inhibitor, partial curve, poor fit]"
10,C(=N\n1cnnc1)/c1ccc(OCc2cccc3ccccc23)cc1,"inconclusive: 19 µM [inhibitor, single point]"
11,CCOC(=O)c1c(NC(=O)/C=C/C(=O)O)sc(C)c1-c1ccc(C)c(C)c1,"inconclusive: 26.9 µM [inhibitor, partial curve, poor fit]"
12,N#CC1(NC(=O)CSc2n[nH]c(-c3ccccc3)n2)CCCCC1,inactive
13,O=C(Nc1ccc(SC(F)F)cc1)C12CCC(CC1)C2,active: 10.7 µM
14,Cc1cc(=O)[nH]c(N/N=C/c2ccccc2C(F)(F)F)n1,inactive
15,Cc1ccc2c(Cl)c(C(=O)NCc3cccnc3)sc2c1,"inconclusive: 19 µM [inhibitor, partial curve]"
16,Cc1ccc2nc(N3C(=O)C(O)=C(C(=O)c4ccc(C)o4)C3c3ccco3)sc2c1 (stereo not given),"inconclusive: 33.8 µM [inhibitor, partial curve, poor fit]"
17,COc1ccc(NC(=O)c2cccc(N3C(=O)C4C5C=CC(C5)C4C3=O)c2)cc1Cl (stereo not given),"inconclusive: 26.9 µM [inhibitor, partial curve, poor fit]"
18,CCOC(=O)c1sc(Nc2ccc(Br)cc2)nc1C,active: 19 µM
19,O=C(Nc1c(C(=O)Nc2cccc(F)c2)oc2ccccc12)c1cc2ccccc2o1,"inconclusive: 6.01 µM [inhibitor, full curve]"
20,COc1ccc(OCc2cccc(C(=O)Nc3ccc(CN4CCCCC4)cc3)c2)cc1,active: 12 µM
21,CCOc1ccc(/C=C/c2nc(C#N)c(Nc3ccc(OC)cc3)o2)cc1,inactive
22,COc1ccc(/C=C2\N=C(C)N(c3ccc(C(=O)O)cc3)C2=O)cc1OC,"inconclusive: 19 µM [inhibitor, partial curve, poor fit]"
23,CN(C)C(=O)COc1ccc(C(=O)/C=C/c2cccnc2)cc1,"inconclusive: 23.9 µM [inhibitor, partial curve]"
24,CN(CC(=O)NCCc1ccc(S(N)(=O)=O)cc1)CC(=O)Nc1cccc(F)c1,inactive

row,SMILES,Potency
1,Cc1ccccc1NC(=O)C(=O)NCCCN1CCCC1=O,"inconclusive: 30.1 µM [inhibitor, partial curve, poor fit]"
2,Cc1ccc(C(=O)N/N=C2\CCCc3ccccc32)c(C)c1,active: 6.01 µM
3,O=c1oc2ccccc2cc1-c1nc(-c2cccs2)cs1,"inconclusive: 30.1 µM [inhibitor, single point]"
4,CCOC(=O)CNC(=O)/C=C/c1ccc2c(c1)OCO2,"inconclusive: 23.9 µM [inhibitor, single point]"
5,Cc1noc(C)c1COC(=O)CCCOc1ccc(Cl)cc1Cl,inactive
6,NS(=O)(=O)c1cccc(NC(=O)CC(NC(=O)c2ccccc2Cl)c2ccccc2)c1 (stereo not given),"inconclusive: 42.6 µM [inhibitor, partial curve, poor fit]"
7,Cc1ccc(S(=O)(=O)CCC(=O)OCC(=O)NC(C)c2ccc(F)cc2)cc1 (stereo not given),inactive
8,Nc1ccccc1Sc1nc2ccccc2[nH]1,"inconclusive: 16.9 µM [inhibitor, partial curve]"
9,CC(=O)Nc1cccc(NC(=O)Nc2ccc(C(C)=O)cc2)c1,active: 10.7 µM
10,Cn1cnnc1SCc1ccc(-c2ccc(Br)cc2)o1,"inconclusive: 23.9 µM [inhibitor, single point]"
11,Cc1ccc(NC(=S)N2CCC(c3ccccc3)C2)c(Cl)c1 (stereo not given),active: 1.51 µM
12,Cc1csc(NC(=O)C2=COCCO2)n1,"inconclusive: 8.49 µM [inhibitor, partial curve, poor fit]"
13,CN(C)S(=O)(=O)c1cccc(NC(=S)NC(=O)c2ccco2)c1,"inconclusive: 9.53 µM [inhibitor, partial curve, poor fit]"
14,COC(=O)CNC(=O)c1ccc2c(c1)S(=O)(=O)c1ccccc1C2=O,"inconclusive: 26.9 µM [inhibitor, single point]"
15,CC(C)(C)C(=O)Nc1ccc(C(=O)N/N=C/c2ccccc2OC(=O)c2ccc(Cl)cc2)cc1,inactive
16,O=C(NCCCNc1ccc([N+](=O)[O-])cc1Cl)c1ccccc1F,"inconclusive: 37.9 µM [inhibitor, partial curve, poor fit]"
17,CCOC(=O)C(C(C)=O)c1c(Br)c(O)c(O)c2c(C(=O)c3ccc(C)cc3)coc12 (stereo not given),active: 19 µM
18,CCOC(=O)c1cc(C)sc1NC(=O)c1ccc(Cl)s1,"inconclusive: 26.9 µM [inhibitor, partial curve, poor fit]"
19,O=C(CCN1CCCO1)NC1CCCc2c1cnn2-c1ccccc1F (stereo not given),inactive
20,CC1(C)Oc2cc(N)c([N+](=O)[O-])cc2O1,"inconclusive: 30.1 µM [inhibitor, partial curve, poor fit]"
21,N#Cc1ccc(C(=O)Nc2nnc(-c3cccs3)o2)cc1,"inconclusive: 26.9 µM [inhibitor, single point]"
22,Cc1cc(C)c2c(N)c(C(=O)Nc3ncc(C)s3)sc2n1,active: 0.0953 µM
23,COc1ccc(OCC(=O)NC2CCCCCCC2)cc1,"inconclusive: 37.9 µM [inhibitor, partial curve, poor fit]"
24,CC(C)(C)c1ccc(-c2csc(NC(=O)CN3C(=O)NC4(CCCCC4)C3=O)n2)cc1,"inconclusive: 15.1 µM [inhibitor, partial curve]"

row,SMILES,Potency
1,O=C(Cc1cccs1)NC1CC(=O)N(c2ccc(Cl)cc2)C1 (stereo not given),inactive
2,O=C(OC1CCCCC1)c1cc2ccccc2oc1=O,active: 7.57 µM
3,COc1ccc(OCc2cc(C(=O)NCC3(C)COC3)no2)c(Cl)c1,active: 19 µM
4,O=C(Nc1ccc2c(c1)OCCO2)C1CCN(C(=O)c2ccc(Br)cc2)CC1,inactive
5,O=C(Nc1nnc(-c2cccnc2)o1)c1cccc(Cl)c1,"inconclusive: 21.3 µM [inhibitor, partial curve, poor fit]"
6,CN(CC(=O)Nc1cccc(F)c1)C(=O)c1ccc(-c2ccc(Cl)cc2)o1,"inconclusive: 30.1 µM [inhibitor, single point]"
7,COc1ccc(-c2noc(CCCC(=O)NC3CCCCC3)n2)cc1,"inconclusive: 42.6 µM [inhibitor, partial curve, poor fit]"
8,O=C(O)C1Cn2c(nc3c(c2=O)C2(CCCC2)Cc2ccccc2-3)S1 (stereo not given),"inconclusive: 21.3 µM [inhibitor, single point]"
9,COc1ccc2cc(-c3[nH]ncc3CN3C[C@@H]4CCC[C@H]3C4)ccc2c1,"inconclusive: 37.9 µM [inhibitor, partial curve, poor fit]"
10,O=C(CCCN1C(=O)/C(=C/c2ccc(F)cc2)SC1=S)NC1CCS(=O)(=O)C1 (stereo not given),"inconclusive: 15.1 µM [inhibitor, partial curve, poor fit]"
11,CS(=O)(=O)N(CC(=O)Nc1ccccc1C(=O)NCCc1ccccc1)c1ccc2c(c1)OCCO2,"inconclusive: 37.9 µM [inhibitor, partial curve, poor fit]"
12,Cc1ccc2c(c1)NC(=O)C(N1CCOCC1)(C(F)(F)F)O2 (stereo not given),inactive
13,O=C(/C=C/c1ccccc1)CC(=O)c1ccccc1O,active: 15.1 µM
14,CC1=C(C(N)=O)C(c2ccc(F)cc2)n2nc(-c3ccc(N(C)C)cc3)nc2N1 (stereo not given),"inconclusive: 26.9 µM [inhibitor, partial curve, poor fit]"
15,COc1ccc(/C=C2\SC(N)=NC2=O)cc1Cl,"inconclusive: 30.1 µM [inhibitor, partial curve, poor fit]"
16,COc1ccc(-c2nc(C#N)c(NCc3ccc(C)cc3)o2)cc1OC,"inconclusive: 21.3 µM [inhibitor, single point]"
17,O=C(Nc1ccc(-c2nc3cccnc3s2)cc1)c1ccco1,active: 1.07 µM
18,CCOc1ccc(-c2nnc(N)o2)cc1,"inconclusive: 19 µM [inhibitor, partial curve, poor fit]"
19,COc1cc(/C=N/Nc2ccc(C)cc2)cc(Br)c1O,"inconclusive: 26.9 µM [inhibitor, single point]"
20,COc1ccc(C(=O)Nc2nnc(S(=O)(=O)N(CC(C)C)c3ccccc3)s2)cc1,"inconclusive: 2.39 µM [inhibitor, full curve]"
21,O=C(/C=C/c1ccc(Cl)cc1Cl)N1CCN(c2ccc([N+](=O)[O-])c(N3CCOCC3)c2)CC1,inactive
22,CCn1c(Cc2ccccc2)nnc1SCC(=O)Nc1nnc(-c2ccccc2)s1,"inconclusive: 9.53 µM [inhibitor, partial curve, poor fit]"
